# Source: PubChem BioAssay (Tox21)
# Where “and” joins values, the source holds several entries; their conditions need not be identical. Identical values can stand only once. The inconclusive results got no clear call from the source; some entries with a clear call stand among them for comparison. For some assays here: Potencies beside an inconclusive call are fits to weak or partial responses and may not hold up. The source holds several records for some structures; these can differ, active in one and inactive in another. Calls of active or inactive are those of the source. Unless noted, calls follow the shape of the dose curve; as a rule, active = well fitted curve in the direction sought with a large enough effect in the repeat runs; inconclusive = weak or mixed curves; inactive = no such curve, though single readings can be large; an effect the other way counts as inactive or inconclusive.
# Assays:
# [1] = target: Aryl hydrocarbon receptor (Homo sapiens) (UniProt P35869); assay: qHTS assay to identify small molecule that activate the aryl hydrocarbon receptor (AhR) signaling pathway (AID 743085); also: nearly all actives have a fitted effect of over 15% in size; also: potency is read from the fitted curve at half-maximal effect
# UniProt P35869, sequence (P35869 whole entry, looked up): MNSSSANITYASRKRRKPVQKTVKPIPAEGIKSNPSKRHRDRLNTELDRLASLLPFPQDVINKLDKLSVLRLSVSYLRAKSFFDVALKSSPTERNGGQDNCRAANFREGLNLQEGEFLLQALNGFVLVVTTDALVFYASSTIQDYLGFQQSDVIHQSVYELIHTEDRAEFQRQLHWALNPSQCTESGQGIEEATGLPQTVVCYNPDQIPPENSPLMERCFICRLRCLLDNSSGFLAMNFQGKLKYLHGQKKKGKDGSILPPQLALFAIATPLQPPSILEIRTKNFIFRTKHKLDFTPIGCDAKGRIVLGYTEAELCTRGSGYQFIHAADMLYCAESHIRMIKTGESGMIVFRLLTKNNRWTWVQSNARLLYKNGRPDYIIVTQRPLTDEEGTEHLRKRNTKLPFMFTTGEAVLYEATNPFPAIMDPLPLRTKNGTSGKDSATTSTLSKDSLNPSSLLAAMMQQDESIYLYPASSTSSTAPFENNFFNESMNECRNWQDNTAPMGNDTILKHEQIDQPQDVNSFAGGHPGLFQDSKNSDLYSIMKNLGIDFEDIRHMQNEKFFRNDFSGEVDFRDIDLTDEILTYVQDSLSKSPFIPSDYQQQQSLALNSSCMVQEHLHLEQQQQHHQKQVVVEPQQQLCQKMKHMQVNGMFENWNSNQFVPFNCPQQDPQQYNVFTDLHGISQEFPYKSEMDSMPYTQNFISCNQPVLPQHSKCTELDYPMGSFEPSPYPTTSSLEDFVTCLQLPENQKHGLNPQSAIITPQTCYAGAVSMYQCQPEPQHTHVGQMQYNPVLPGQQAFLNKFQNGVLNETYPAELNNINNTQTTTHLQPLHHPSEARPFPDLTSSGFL
# How it was run: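 Compounds were tested in HepG2 hepatocellular carcinoma cells harbouring a stably integrated luciferase gene under control of 20 DREs. Increased reporter signal after 24 h treatment at 37C was taken as AhR activation.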
# [2] = target: Peroxisome proliferator-activated receptor gamma (Homo sapiens) (UniProt P37231); assay: qHTS assay to identify small molecule antagonists of the peroxisome proliferator-activated receptor gamma (PPARg) signaling pathway (AID 743191; calls by dose curve; also: nearly all actives have a fitted effect of over 30% in size; also: potency is read from the fitted curve at half-maximal effect); conditions: HEK293H PPARg-UAS-bla, beta-lactamase ratio, antagonist, 17 h; ratio activity, negative = inhibition: at 62.6 µM (top of the series) unless noted
# UniProt P37231, sequence (P37231 whole entry, looked up): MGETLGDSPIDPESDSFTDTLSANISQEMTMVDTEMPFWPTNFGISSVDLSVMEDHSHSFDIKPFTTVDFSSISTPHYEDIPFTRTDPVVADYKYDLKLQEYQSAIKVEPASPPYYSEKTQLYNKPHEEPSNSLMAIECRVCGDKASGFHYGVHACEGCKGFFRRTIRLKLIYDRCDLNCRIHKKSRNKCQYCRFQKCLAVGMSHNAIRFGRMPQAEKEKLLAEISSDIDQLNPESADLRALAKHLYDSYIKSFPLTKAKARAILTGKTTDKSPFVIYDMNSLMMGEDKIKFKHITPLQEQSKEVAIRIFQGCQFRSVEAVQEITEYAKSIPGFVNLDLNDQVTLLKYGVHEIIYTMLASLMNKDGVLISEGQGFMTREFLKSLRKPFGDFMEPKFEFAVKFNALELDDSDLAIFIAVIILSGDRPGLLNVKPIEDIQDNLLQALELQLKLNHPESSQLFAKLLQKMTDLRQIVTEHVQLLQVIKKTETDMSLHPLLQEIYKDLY
# How it was run: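 GeneBLAzer PPARg UAS-bla HEK293H cells, 5 h post-plating, exposed to compounds 17 h at 37C. LiveBLAzer B/G FRET substrate added for 1 h at room temperature; beta-lactamase reporter read by fluorescence intensity.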
# [3] = qHTS assay to identify small molecule antagonists of the peroxisome proliferator-activated receptor gamma (PPARg) signaling pathway - cell viability counter screen (AID 743194); conditions: PPARg-bla HEK293H viability, CellTiter-Glo luminescence, 17 h, co-treated with 50 nM rosiglitazone; activity change, negative = cytotoxicity: at 62.6 µM (top of the series); also: potency is read from the fitted curve at half-maximal effect; nearly all actives have a fitted effect of over 55% in size
# How it was run: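 Cytotoxicity counter screen in PPARg-bla HEK293H cells, same wells as reporter assay. Compounds plus 50 nM rosiglitazone (final) for 17 h at 37 C, then viability read by CellTiter-Glo luminescence.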
# [4] = qHTS assay for small molecule agonists of the antioxidant response element (ARE) signaling pathway (AID 743202; active = well fitted activation curve with a large enough effect in the signal ratio in the repeat runs, not every such curve was filed as active; inconclusive = weak or mixed curves, or effect the other way; inactive = no such curve, though single readings can be large or run the other way; the % refers to the signal ratio; also: potency is read from the fitted curve at half-maximal effect); conditions: HepG2 ARE-bla reporter, beta-lactamase FRET, 16 h; activation: at 73.3 µM (top of the series) unless noted
# How it was run: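 ARE-bla HepG2 cells (beta-lactamase reporter under the antioxidant response element), plated 5 hours, then exposed to compounds 16 hours at 37 C. LiveBLAzer B/G FRET substrate added for 2 hours at room temperature; fluorescence intensity read.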
# [5] = qHTS assay for small molecule activators of the heat shock response signaling pathway - cell viability counter screen (AID 743209); conditions: HSE-bla HeLa viability, CellTiter-Glo luminescence, 5 h; activity change, negative = cytotoxicity: at 62.6 µM (top of the series); also: potency is read from the fitted curve at half-maximal effect; nearly all actives have a fitted effect of over 50% in size
# How it was run: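 First, HSE-bla HeLa cells were seeded at 1500 cells/well and kept overnight at 37 C. Next, compounds were pinned in and incubated 5 h. After the FRET substrate step, CellTiter-Glo was added and luminescence read 30 min later.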
# [6] = qHTS assay for small molecule activators of the heat shock response signaling pathway (AID 743210; active = well fitted activation curve with a large enough effect in the signal ratio in the repeat runs, with a control signal flat, not every such curve was filed as active; inconclusive = weak or mixed curves; the % refers to the signal ratio; also: potency is read from the fitted curve at half-maximal effect); conditions: HeLa HSE-bla reporter, beta-lactamase ratio, 5 h; activation: at 62.6 µM (top of the series)
# How it was run: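 HSE-bla HeLa cells (beta-lactamase reporter under heat shock response elements), plated overnight, then exposed to compounds 5 h at 37 C; LiveBLAzer B/G FRET substrate added, 2.5 h at room temperature, fluorescence intensity read.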
# [7] = qHTS assay to identify small molecule agonists of the peroxisome proliferator-activated receptor delta (PPARd) signaling pathway - cell viability counter screen (AID 743211); conditions: PPARd-bla HEK293H viability, CellTiter-Glo luminescence, 17 h; activity change, negative = cytotoxicity: at 62.6 µM (top of the series); also: potency is read from the fitted curve at half-maximal effect; nearly all actives have a fitted effect of over 55% in size
# How it was run: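 Counter screen for cytotoxicity run in parallel with the PPARd reporter screen. Beta-lactamase reporter HEK293H cells exposed to compounds 17 h; ATP-based CellTiter-Glo luminescence quantified viability.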
# [8] = target: Peroxisome proliferator-activated receptor delta (Homo sapiens) (UniProt Q03181); assay: qHTS assay to identify small molecule agonists of the peroxisome proliferator-activated receptor delta (PPARd) signaling pathway (AID 743212; calls by dose curve; also: % is scaled to controls: 0 for no effect and ±100 for the full control effect); conditions: HEK293H PPARd-UAS-bla, beta-lactamase FRET ratio, 17 h; activation: at 62.6 µM (top of the series) unless noted
# UniProt Q03181, sequence (Q03181 whole entry, looked up): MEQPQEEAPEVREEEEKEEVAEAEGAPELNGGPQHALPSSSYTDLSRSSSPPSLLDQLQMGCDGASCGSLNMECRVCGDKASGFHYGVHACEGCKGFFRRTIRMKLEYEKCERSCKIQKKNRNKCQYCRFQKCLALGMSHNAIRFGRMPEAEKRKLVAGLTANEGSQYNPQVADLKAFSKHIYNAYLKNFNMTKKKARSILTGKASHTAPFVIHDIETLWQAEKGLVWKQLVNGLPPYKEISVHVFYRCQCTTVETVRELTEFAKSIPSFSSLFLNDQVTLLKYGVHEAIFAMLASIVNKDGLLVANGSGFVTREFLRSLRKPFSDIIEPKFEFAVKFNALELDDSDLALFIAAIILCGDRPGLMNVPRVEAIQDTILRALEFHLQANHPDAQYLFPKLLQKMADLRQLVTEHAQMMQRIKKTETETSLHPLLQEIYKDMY
# How it was run: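 GeneBLAzer UAS-bla HEK293H cells carrying a PPARδ construct were exposed to compounds at 37 °C. Beta-lactamase activity was read by FRET fluorescence after 2 h at room temperature with LiveBLAzer B/G substrate.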
# [9] = target: Peroxisome proliferator-activated receptor delta (Homo sapiens) (UniProt Q03181); assay: qHTS assay to identify small molecule antagonists of the peroxisome proliferator-activated receptor delta (PPARd) signaling pathway (AID 743215; active = well fitted inhibition curve with a large enough effect in the signal ratio in the repeat runs, not every such curve was filed as active; inconclusive = weak or mixed curves, or effect the other way; inactive = no such curve, though single readings can be large or run the other way; the % refers to the signal ratio;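 also: cells stimulated with agonist L165041 at 300 nM final during compound exposure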; also: potency is read from the fitted curve at half-maximal effect); conditions: HEK293H PPARd-UAS-bla, beta-lactamase FRET ratio, antagonist, 17 h; ratio activity, negative = inhibition: at 62 µM (top of the series) unless noted
# How it was run: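 Inhibition of L165041-driven (300 nM final) PPARd signaling is scored in HEK293H UAS-bla cells. Exposure lasts 17 h at 37 C; beta-lactamase activity is then read by FRET substrate fluorescence after 2 h at room temperature.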
# [10] = target: Bile acid receptor (Homo sapiens) (UniProt Q96RI1); assay: qHTS assay to identify small molecule antagonists of the farnesoid-X-receptor (FXR) signaling pathway (AID 743217; active = well fitted inhibition curve with a large enough effect in the signal ratio in the repeat runs, not every such curve was filed as active; inconclusive = weak or mixed curves, or effect the other way; inactive = no such curve, though single readings can be large or run the other way; the % refers to the signal ratio; also: potency is read from the fitted curve at half-maximal effect); conditions: HEK293T FXR-UAS-bla, beta-lactamase ratio, CDCA-stimulated, 16 h; activity change, negative = inhibition: at 62.6 µM (top of the series) unless noted
# UniProt Q96RI1, sequence (Q96RI1 whole entry, looked up): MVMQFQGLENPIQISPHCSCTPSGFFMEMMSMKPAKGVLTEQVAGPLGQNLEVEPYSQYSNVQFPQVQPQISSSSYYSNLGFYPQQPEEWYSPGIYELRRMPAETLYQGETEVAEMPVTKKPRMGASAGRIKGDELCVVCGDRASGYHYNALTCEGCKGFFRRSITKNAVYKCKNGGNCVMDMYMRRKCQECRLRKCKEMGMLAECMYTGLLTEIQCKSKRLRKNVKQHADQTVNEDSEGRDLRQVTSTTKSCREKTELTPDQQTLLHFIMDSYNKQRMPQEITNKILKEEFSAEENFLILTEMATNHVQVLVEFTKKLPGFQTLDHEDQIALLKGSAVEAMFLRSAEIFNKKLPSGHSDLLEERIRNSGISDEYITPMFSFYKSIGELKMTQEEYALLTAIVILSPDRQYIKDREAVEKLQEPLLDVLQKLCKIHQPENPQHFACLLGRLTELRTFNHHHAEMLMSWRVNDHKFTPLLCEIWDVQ
# How it was run: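 Antagonist mode against 50 uM (final) chenodeoxycholic acid stimulation in FXR-bla HEK 293T cells, 16 h at 37 °C. Inhibition detected as reduced beta-lactamase activity via LiveBLAzer B/G FRET fluorescence after 2 h at room temperature.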
# [11] = qHTS assay to identify small molecule agonists of the farnesoid-X-receptor (FXR) signaling pathway - cell viability counter screen (AID 743218); conditions: FXR-bla HEK293T viability, CellTiter-Glo luminescence, 16 h; viability change, negative = cytotoxic: at 62.6 µM (top of the series) unless noted; also: potency is read from the fitted curve at half-maximal effect; nearly all actives have a fitted effect of over 45% in size
# How it was run: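 Cytotoxicity counter-screen run in parallel, same wells: FXR-UAS-bla HEK 293T cells dosed 16 h at 37 C, viability read by CellTiter-Glo luminescence after 30 min at room temperature.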
# [12] = qHTS assay to identify small molecule antagonists of the farnesoid-X-receptor (FXR) signaling pathway - cell viability counter screen (AID 743221; active = well fitted cell-killing curve with a large enough effect in the repeat runs, not every such curve was filed as active; inconclusive = weak or mixed curves, or effect the other way; inactive = no such curve, though single readings can be large or run the other way; also: potency is read from the fitted curve at half-maximal effect; nearly all actives have a fitted effect of over 50% in size); conditions: FXR-bla HEK293T viability, CellTiter-Glo luminescence, 16 h; activity change, negative = cytotoxicity: at 62.6 µM (top of the series)
# How it was run: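 Multiplexed counter screen: viability of FXR-bla HEK 293T cells under agonist stimulation by chenodeoxycholic acid (50 uM, final) and test compound for 16 h at 37 C, measured by CellTiter-Glo luminescence in the reporter wells.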
# [13] = qHTS assay to identify small molecule antagonists of the peroxisome proliferator-activated receptor delta (PPARd) signaling pathway - cell viability counter screen (AID 743213); conditions: PPARd-bla HEK293H viability, CellTiter-Glo luminescence, 17 h; viability change, negative = cytotoxic: at 62 µM (top of the series) unless noted; also: nearly all actives have a fitted effect of over 50% in size; also: potency is read from the fitted curve at half-maximal effect
# How it was run: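 PPARd-bla HEK293H cells were treated with compounds plus agonist L165041 (300 nM final) for 17 h at 37 C. Viability was then read in the same wells by CellTiter-Glo luminescence after 30 min at room temperature.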
# [14] = qHTS assay to identify small molecule that activate the aryl hydrocarbon receptor (AhR) signaling pathway - cell viability counter screen (AID 743086); also: potency is read from the fitted curve at half-maximal effect; nearly all actives have a fitted effect of over 45% in size
# How it was run: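 HepG2-AhR-luc (HG2L7.5c1) cells, 4000/well, treated 24 h at 37 C with compound; viability measured as CellTiter-Fluor fluorescence after 30 min in the same wells as the luciferase read.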
# [15] = target: Peroxisome proliferator-activated receptor gamma (Homo sapiens) (UniProt P37231); assay: qHTS assay to identify small molecule agonists of the peroxisome proliferator-activated receptor gamma (PPARg) signaling pathway (AID 743094; active = well fitted activation curve with a large enough effect in the signal ratio in the repeat runs, not every such curve was filed as active; inconclusive = weak or mixed curves, or effect the other way; inactive = no such curve, though single readings can be large or run the other way; the % refers to the signal ratio; also: % is scaled to controls: 0 for no effect and ±100 for the full control effect); conditions: HEK293H PPARg-UAS-bla, beta-lactamase FRET ratio, 17 h; activation: at 57 µM (top of the series) unless noted
# How it was run: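 Quantitative HTS agonist mode: stable HEK293H line with UAS-beta-lactamase reporter under PPARg control, 17 h compound exposure at 37C, fluorescence after 1 h FRET substrate loading at room temperature.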
# [16] = target: Vitamin D3 receptor (Homo sapiens) (UniProt P11473); assay: qHTS assay to identify small molecule agonists of the vitamin D receptor (VDR) signaling pathway (AID 743222; calls by dose curve; also: % is scaled to controls: 0 for no effect and ±100 for the full control effect); conditions: HEK293T VDR-UAS-bla, beta-lactamase FRET ratio, 16 h; activation: at 63.5 µM (top of the series) unless noted
# UniProt P11473, sequence (P11473 whole entry, looked up): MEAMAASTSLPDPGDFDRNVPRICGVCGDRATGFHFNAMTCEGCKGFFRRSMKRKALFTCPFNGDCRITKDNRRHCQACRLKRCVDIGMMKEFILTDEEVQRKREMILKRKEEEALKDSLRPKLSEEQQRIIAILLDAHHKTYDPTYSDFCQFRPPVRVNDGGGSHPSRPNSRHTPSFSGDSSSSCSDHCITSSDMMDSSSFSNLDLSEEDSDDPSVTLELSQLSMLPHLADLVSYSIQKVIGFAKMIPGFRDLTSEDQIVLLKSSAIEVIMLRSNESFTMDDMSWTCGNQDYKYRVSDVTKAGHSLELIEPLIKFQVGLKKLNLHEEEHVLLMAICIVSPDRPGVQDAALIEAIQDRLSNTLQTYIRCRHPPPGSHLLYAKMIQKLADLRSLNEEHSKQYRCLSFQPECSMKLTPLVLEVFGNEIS
# How it was run: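 Quantitative HTS agonist-mode screen: compounds in DMSO were pin-transferred onto VDR-bla cells and incubated 16 h at 37C, 5% CO2. Reporter activity was detected with LiveBLAzer B/G FRET substrate after 2 h at room temperature.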
# [17] = target: Vitamin D3 receptor (Homo sapiens) (UniProt P11473); assay: qHTS assay to identify small molecule antagonists of the vitamin D receptor (VDR) signaling pathway (AID 743223; active = well fitted inhibition curve with a large enough effect in the signal ratio in the repeat runs, not every such curve was filed as active; inconclusive = weak or mixed curves, or effect the other way; inactive = no such curve, though single readings can be large or run the other way; the % refers to the signal ratio; also: % is scaled to controls: 0 for no effect and ±100 for the full control effect); conditions: VDR-UAS-bla HEK293T, beta-lactamase FRET ratio, 16 h; activity change, negative = inhibition: at 61 µM (top of the series) unless noted
# How it was run: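 Cells carrying a VDR-driven beta-lactamase reporter (VDR-bla) were co-treated with compound and 3 nM final 1alpha,25-dihydroxyvitamin D3 for 16 h at 37C; reporter activity was measured as FRET substrate fluorescence after 2 h at room temperature.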
# Tags tell the direction and shape of the fitted curve or compound fluorescence and quenching.
compound,measurement,setting,value
O=C(Nc1ccc(Oc2ccc(Cl)cc2)c(Cl)c1)c1cc(I)cc(I)c1O,Potency,[1],"inconclusive: 15 µM [activator, partial curve, poor fit]"
same,Potency,[2],"inconclusive: 18.8 µM [fluorescent, partial curve]"
same,Potency,[3],active: 5.31 µM
same,activation,[4],inconclusive: -27.6%
same,Potency,[5],"inconclusive: 10.6 µM [cytotoxic, full curve]"
same,Potency,[6],inconclusive: 23.7 µM
same,Potency,[7],inconclusive: 26.6 µM [cytotoxic]
same,activation,[8],inconclusive: -1.34%
same,"ratio activity, negative = inhibition",[9],inconclusive: -47.9%
same,Potency,[10],inconclusive: 33.5 µM [fluorescent]
same,Potency,[11],"inconclusive: 33.5 µM [cytotoxic, single point]"
same,Potency,[12],"inconclusive: 23.7 µM [falling, partial curve]"
Nc1nc(-c2ccccc2)c(Br)c(=O)[nH]1,Potency,[1],"inconclusive: 29.8 µM [activator, partial curve, poor fit]"
same,Potency,[4],inactive
NNC(=O)OCc1ccccc1,Potency,[1],"inconclusive: 30.6 µM [activator, partial curve]"
same,Potency,[2],"inconclusive: 1.38 µM [inhibitor, full curve, poor fit]"
same,Potency,[4],"inconclusive: 77 µM [rising, partial curve, poor fit]"
same,Potency,[8],inactive
same,Potency,[13],inactive
O=C(COCCOCCOCC(=O)Nc1c(I)cc(I)c(C(=O)O)c1I)Nc1c(I)cc(I)c(C(=O)O)c1I,Potency,[1],"inconclusive: 11.9 µM [activator, partial curve, poor fit]"
same,Potency,[2],inactive
same,Potency,[13],"inconclusive: 0.841 µM [rising, partial curve, poor fit]"
same,Potency,[9],inactive
O=[N+]([O-])c1ccc2c(c1)Cc1ccccc1-2,Potency,[1],active: 61.1 µM
same,Potency,[2],"inactive and inconclusive: 49 µM [activator, partial curve, poor fit]"
CCN(CC)CCNc1ccc(CO)c2sc3ccccc3c(=O)c12,Potency,[14],active: 6.68 µM
same,activation,[15],inconclusive: -20.9%
same,Potency,[2],inconclusive: 33.5 µM
same,Potency,[3],"inconclusive: 33.5 µM [cytotoxic, partial curve, poor fit]"
same,Potency,[4],"inconclusive: 6.68 µM [falling, full curve]"
same,Potency,[7],active: 18.8 µM
same,Potency,[13],active: 13.3 µM
same,Potency,[9],active: 23.7 µM
same,Potency,[10],inconclusive: 26.6 µM [partial curve]
same,Potency,[11],active: 13.3 µM
same,Potency,[12],"inconclusive: 13.3 µM [falling, partial curve]"
same,Potency,[16],inactive
same,"activity change, negative = inhibition",[17],inconclusive: -43.2%
CC1(C)CO[C@@H](CC(=O)O)CN1,Potency,[1],inactive
same,Potency,[4],inactive
same,Potency,[8],inactive
same,Potency,[13],"inconclusive: 7.5 µM [cytotoxic, partial curve, poor fit]"
same,Potency,[11],"inconclusive: 0.0841 µM [rising, partial curve, poor fit]"
same,Potency,[16],inactive
